This note sets out measurements from paper PMC10726135.

The list shows a part of the results. At the low end of the ranking the order means little. Measured with an extract: partners may take part in the binding.

The test deals with T1, HNF4alpha8 (COS-7 nuclear extract) (UniProt P41235-5).
T1 sequence: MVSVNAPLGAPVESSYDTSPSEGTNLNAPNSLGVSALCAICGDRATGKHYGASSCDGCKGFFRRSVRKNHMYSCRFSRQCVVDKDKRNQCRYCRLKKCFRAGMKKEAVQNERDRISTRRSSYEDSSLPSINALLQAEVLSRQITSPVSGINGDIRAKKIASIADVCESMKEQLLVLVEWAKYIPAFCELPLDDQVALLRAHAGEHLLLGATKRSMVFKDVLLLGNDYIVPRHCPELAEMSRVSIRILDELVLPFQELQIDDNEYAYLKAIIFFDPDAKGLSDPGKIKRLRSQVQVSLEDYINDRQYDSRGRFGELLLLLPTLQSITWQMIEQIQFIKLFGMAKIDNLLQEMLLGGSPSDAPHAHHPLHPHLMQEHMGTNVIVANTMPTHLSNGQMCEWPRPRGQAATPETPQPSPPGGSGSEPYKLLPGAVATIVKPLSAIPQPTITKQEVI
In words: protein-binding microarray. As to conditions: COS-7 nuclear extract on double-stranded Agilent 4x180k PBM; binding buffer, salt, pH and temperature not given; high values mean tight binding; double strand, one strand shown; sequences stand for … in …GCCTAGGGAGATTAGAGTATCGGTCGA
Turning to GCTCCTATCATCCCTATCACTCAAGAAATG, the binding signal (log2 normalized intensity) was 0.00841.

CTTTATTATCCCAGTAGAGAAACAAATCTG: the binding signal (log2 normalized intensity) was determined as 0.0079. As for TCCTACTTCTGTTTAAACTGATAACCTTGC, the figure is 1.15. For CCACAATTACTGAAGTTCCAGAGCCTTCAA, the binding signal (log2 normalized intensity) is -1.32. As for AGATAGCACCAGCCCATTAATCAAGGCTGC, the figure is -1.27; as for TACTTAATGATCTTGGCTGCTTTAGACATG, 0.416; as for TTACAAAACAGGTTCTTCCACGACTCCCCC, 4. As for CCCCTCCTGTCAGTTTATTTACTGTCCTCA, the figure is 1.88; as for TAACCTTTGACCATCCACGGGTCCATGATT, 5.27; as for GGTTATGCAGAGCTTAGTTTGCCACGGTCA, 0.515. As for TAGAATTTGAACTATGGTCATCTGAGGGAA, the figure is 2.24. AGAGAGAGGGAGAGTGGCCTTTGGAATCAA: the binding signal (log2 normalized intensity) was 4.1. As for GAGGAGTGGCCATGATGCCATCTGGTGAAG, the figure is -1.24; as for GATGGAACAGTGTAACACATGGCATAGTTG, 0.704.

AAAGATTGCATGAGATTTTGCTCAACAAAT: the binding signal (log2 normalized intensity) was -1.24. As for GAGAAATCACGGACTATCCCCGTCCGCGGA, the figure is -1.41; as for TTCCTGGGCTCAAACAATCCTCCCACCTCA, 1.09.

For TTCTCAAACCTTCCAAAGTTCAACCTCATT, the binding signal (log2 normalized intensity) is 2.84. For the sequence GAGACTTTGGACTTTGGACTTGGGACTTTC, the binding signal (log2 normalized intensity) amounted to 9.81. As for CAGTGAAAACAGCCCTAACCAGGGGTGGGG, the figure is -1.37; as for GACTGGGTGTGGGGGTGGAGAAGGAAGGGG, -1.28.

For TGGAGCATGACCCTTTGCAGGTGGGAGAGG, the binding signal (log2 normalized intensity) turned out to be 0.928.

Consider CAGCCAGCAGGGGGCGCAGAAGGGATGGGA, for which the binding signal (log2 normalized intensity) was -1.42. As for CAACTGTGTGTGGCCTGCACAGTTGCACAA, the figure is -1.3; as for ATGTGAAGCTTGCTGATTACATAGGAGGCT, -1.28; as for TCCACTTCTGAGGAGAAGAATGAAAGCCAA, -1.27. As for AGTGTGTTGACATTTGAACCCAACCGTCCA, the figure is 3.74; as for TGTGCTGCCCTCTTGTGGCCATTTGGGAAA, 1.44; as for TGCTAAGATGGTCTCAGGTGGAGATAAGGA, -0.538. As for GGGAGAAACCTGCCAGGTGGACCAAAACAC, the figure is -0.226; as for CAGGAAGTTCAGGCCTCGGCTTCATTAGCA, -1.36; as for CTCTGATTCTCCAGTCCGAAGGTCCACCCG, 3.68.

Turning to CTTGTTATATTGGATAGTGCCTTTTCTAAT, the binding signal (log2 normalized intensity) was determined as 1.82.

Consider CTACAGGAGAACAAAGTTCACCTTTCCCTT, for which the binding signal (log2 normalized intensity) stood at 3.72.

As for TGCGCTGGTTTTATGGTGTCTTATCTTCCT, the binding signal (log2 normalized intensity) was 2.11.

Take CTCACAGAGTGGAGTCTTCCGTTTGATAGA: the binding signal (log2 normalized intensity) was -1.11. As to CCGGTTTGGGGACTTCTCCCCAGAGCCTCT, the binding signal (log2 normalized intensity) was -1.33. As for AAAAGGCCCCAGGGATTGCACAGGATGCCA, the figure is -1.32; as for CCTAAACCTGCAAACCTTTGACCTTTCCAT, 6.22; as for GAGGTTCCTGGAACTCTGACCTTTGCCCCC, 10.3. As for CAAGAGGACAAGGTTCAAAAGCTACCTGTT, the binding signal (log2 normalized intensity) came out at 2.73. As for TGCCTGGCTCAGCATTCTGAGGGCCTCCAA, the figure is -1.19; as for AGCTCTTCTGTGCCTCCCAAATGCAAACAG, 1.45; as for CGCTGCTTCCACCAGGGCTAGACCCGTCAG, -1.35.

With GAGCCCAGACAAGCATTCTGCTGAAGGAGC, the binding signal (log2 normalized intensity) is -1.32.

On to AATCGACCTTTAGCACCGTAAGAGAGTATT, for which the binding signal (log2 normalized intensity) came out at 4.63. As for TACCAGTAGGACCACATTCAATCATGAACA, the figure is -1.37; as for TCCTTTTCTTTCACATACAAAATTTACTTT, 1.75; as for GCTGATTGCTCAACCCAAAGCATGTCCAGA, -1.31.

Consider CATCATAGTTATTCAGTACAGACTTGTGTA, for which the binding signal (log2 normalized intensity) was 1.47.

In the case of ATGAATACATGAGTGATCCTGAAAACAAAT, the binding signal (log2 normalized intensity) was -1.24. As for ATCAAAGGCCTTCCTATCTCTACTTGCCGA, the figure is -1.31. As for ACTAAAGGTTAAACATGTACTCTGTACTCC, the figure is 3.43. As for TCCCCACCCGGTGTGCGTGGGTGGGAAATC, the figure is 1.15; as for TTTGCAGAGGGAAAGCGAGAGAGCCTGGAC, -1.42.

TCAGGTCCAAGGAACCTCACGCGCTCCCTG: the binding signal (log2 normalized intensity) was -1.34.

For ATCAAGATCACTGCCTTGGAGGCACTCCCA, the binding signal (log2 normalized intensity) was -1.29. As to AAAAGCCGGGGAAAGGGAAAAAGGGAGATA, the binding signal (log2 normalized intensity) was -1.36.

Consider GGGGCCTTGCAATGAGGCGACATCAAAGCA, for which the binding signal (log2 normalized intensity) is -1.25. As to ATTCCCTCTAATCTGGGACAAGGGGGAGGA, the binding signal (log2 normalized intensity) was -1.42.

For the sequence AGACTCCTGCATATCCTGACTGCTGACCTT, the binding signal (log2 normalized intensity) was 3.85.

Take TTCCTTATCTGTAAAATGGACATAGTAACA: the binding signal (log2 normalized intensity) was determined as 1.28. Turning to GTGTAAACTTTGCAGCAGATAATTACCTGG, the binding signal (log2 normalized intensity) was -1.3.

For the sequence AGGGGTTAGGTAAACATTTGTTGAGTGAGT, the binding signal (log2 normalized intensity) was found to be 1.23. For the sequence CAGCATAGGGCCACTTTGTCCTTCACTTGT, the binding signal (log2 normalized intensity) came to 0.812. As for GGTTCCAGCATGGACTTCACAGCCTGTTAG, the figure is 0.147; as for AACCAAATGCACACACAATAAGGACTTTGG, 4.15.

AAGTCAATGAGCATTTCACAATTCGTTCAT: the binding signal (log2 normalized intensity) was -1.22.

Regarding CCACAGGAGGCCCCATCGCACGGCAGAACT, the binding signal (log2 normalized intensity) was -1.22.

In the case of CCAGCAGGGGCTGCTGGGAGTTGTAGTTTT, the binding signal (log2 normalized intensity) is -1.27. As for AACCTGGGAAAACTTACGCACATTACTTTG, the figure is -1.26; as for GTCCAGAGGCTCCAAAGGACACTCCGCTTG, -1.42; as for GCCATGTTCTCTAGAAACAGAGCCCAAGGC, -1.35.
